In general, Kd refers to the concentration at which binding is half-saturated.

Consider seven compounds from publication PMC11472058, “Trinucleotide cap analogs with triphosphate chain modifications: synthesis, properties, and evaluation as mRNA capping reagents” (Nucleic Acids Research, 2024).

The target of one experiment is T1, Human Dcp2 (Homo sapiens, UniProt Q8IU60).
T1 construct: made in house; host or cells: E. coli
As to the kind of experiment: RNA decapping assay with recombinant hDcp2. The class given is biochemical. The note with it: fraction of decapped RNA after 30 min of incubation with hDcp2, 27-nt RNA capped with the analog, 37 °C; triplicates ± SD. As to the method:
Human Dcp2 was expressed in E. coli and purified as described previously ([52]). Short 27 nt-capped RNAs (24.2 ng) were diluted with decapping buffer (50 mM Tris–HCl pH 8.0, 50 mM NH4Cl, 0.01% NP-40, 1 mM DTT, 5 mM MgCl2 and 2 mM MnCl2; 2.9 μl of freshly prepared 10 × Buffer) and the final volume was adjusted to 29 μl with ultrapure RNase free water. 4.2 ng (5 μl) of the solution was taken out as time zero reference and diluted with 5 μl loading dye (5 M urea, 44% formamide, 20 mM EDTA, 0.03% bromophenol blue, 0.03% xylene cyanol). The remaining RNAs (20 ng/24 μl) were subjected to 10 nM hDcp2 (250 nM, 1 μl) and the mixtures were incubated at 37°C for 1 h. At defined time points (5, 15, 30 and 60 min), 4 ng of RNA (5 μl) were taken out and the reactions were quenched by adding an equal volume of loading dye. RNAs were resolved electrophoretically on denaturing 15% acrylamide:bisacrylamide 19:1/7 M urea/1 × TBE gel, stained with SYBR Gold (Invitrogen) and visualized using a Typhoon FLA 9500 (GE Healthcare). The decapping progress was determined for each time point by densitometry analysis of the gels, as a ratio between the intensity of the band corresponding to capped RNA and the sum of the intensity of bands from capped and uncapped RNAs. The percentages of remaining capped RNA were then plotted as a function of time.
The RNAs used to determine the capping efficiencies were also useful to study the susceptibility of capped RNA to decapping by hDcp2, the catalytic subunit of the major human mRNA decapping complex Dcp1/Dcp2, which releases m^7GDP and 5′-monophosphorylated RNA (in this case the 26-nt pApG-RNA24; Figure 4C). The progress of decapping at different time points (5, 15, 30 and 60 min) was monitored by HR-PAGE followed by densitometric analysis of the gels (Figure 4C, triplicates of gels are shown in Supplementary Figure S2), and the fraction of remaining capped RNA (27-nt) was plotted as a function of time (Figure 4D-G). […] For better visualization, the data of modified capped RNAs were grouped according to the type of modification present at the 5′ end and presented in separate graphs (Figure 4E–G). To quantify the relative susceptibility to hDcp2, we compared the decapping levels at the 30 min time point (Table 1). For RNAs capped with β-S-triphosphate analogs (1–6, Figure 4E, Table 1), we observed a significant difference in susceptibility to hDcp2 between RP and SP isomers, independent of the methylation pattern.

The next experiment addresses T2, human eIF4E1a (Homo sapiens, UniProt P06730).
T2 construct: made in house; host or cells: E. coli Rosetta 2 (DE3)pLysS
As to the kind of experiment: Fluorescence quenching titration (FQT) binding assay with eIF4E. To be noted: 20 °C, pH 7.2, average of triplicates ± SD, read-out: heIF4E1a KD. As to the method: The human eIF4E1a protein was expressed without affinity tag in E. coli Rosseta 2 (DE3)pLysS strain (Novagen) under conditions leading to accumulation of the produced protein in inclusion bodies ([48]). The protein was extracted from inclusion bodies with buffer containing 6 M guanidine hydrochloride, refolded by one-step dialysis against 50 mM HEPES/KOH (pH 7.2), 100 mM KCl, 0.5 mM EDTA, 2 mM DTT, and purified by ion exchange chromatography on HiTrap SP HP 5 ml column (GE Healthcare) using salts gradient. Finally, protein was filtered using Ultrafree MC-HV Centrifugal PVDF filters with 0.45 μm membrane pore (Millipore) to remove protein aggregates and its concentration was determined spectrophotometrically assuming the theoretical extinction coefficient ϵ280nm = 52 940 L mol^−1cm^−1—calculated from amino acid composition using algorithm on ExPASy Server.
Fluorescence titration measurements were carried out on a LS-55 spectrofluorometer (Perkin Elmer Co., Norwalk, CT, USA) in a quartz semi-micro cuvette (Hellma, Germany) with optical lengths 4 mm and 10 mm for absorption and emission, respectively, which was thermostated at 20.0 ± 0.2 °C. The titrations were performed in 50 mM Hepes/KOH pH 7.2, 100 mM KCl, 0.5 mM EDTA and 1 mM DTT by adding 1 μl aliquots of increasing concentrations of the cap solutions to 1.4 ml of 0.1 μM eIF4E1a solution. The eIF4E1a fluorescence was excited at 280 nm and the fluorescence intensity was monitored at a single wavelength 340 nm. The measured fluorescence intensities were corrected for dilution (<4%) and for the inner filter effect. Association equilibrium constants (Kas) were obtained by fitting the theoretical curve for fluorescence intensity (F) upon total concentration of cap analogs ([L]) to the titration data according to the equation: […]
with the concentration of the cap analogs–eIF4E1a complex [cx] given by:
where Δϕ stands for the difference between the fluorescence efficiencies of the apo- and cap analog bound proteins; ϕlig-free is the fluorescence efficiency of the free cap analog; F(0) is the initial fluorescence, and Pact is the total concentration of the active protein ([49]). The final KAS values were calculated as a weighted average from three independent titrations and represented as the KD values. Numerical least-squares nonlinear regression analysis was performed using ORIGIN 2021 from Microcal Software Inc., USA.
Recognition of the mRNA 5′ cap by translation initiation factor 4E (eIF4E) is considered to be the rate-limiting step for the entire translation process ([63],[64]), therefore we investigated the affinity of novel trinucleotide cap analogs to the canonical human eIF4E1a protein by fluorescence quenching titration (FQT; Table 1 column 1, Figure 3) ([65]). As a reference, we determined the dissociation constant between heIF4E1a and the trinucleotide cap-1 structure m^7GpppAmpG, which was equal to 42 nM and very close to the analogous value previously determined for mouse Δ27NeIF4E (46 nM) ([12]). In the case of all modifications tested, the KD values for cap-heIF4E1a complexes are consistent with the results previously obtained for dinucleotide counterparts and murine eIF4E protein, although the magnitude of the modification effect is generally lower. The most tightly bound tetraphosphate analogs (compounds 10–12) show KD values of 6–7 nM, which means that their affinity is about 6-fold higher compared to the triphosphate counterparts. The affinities decrease upon CH2 or CCl2 modification of the tetraphosphate bridge (compounds 13–16), but they are still 4–5 times higher than for the triphosphate analogs with the same adenosine methylation pattern.

The target in experiment [1] is T3, T7 RNA polymerase (Escherichia phage T7, UniProt P00573).
T3 construct: 6xHis (N); made in house; host or cells: E. coli BL21 (DE3) RIL
As to the kind of experiment: Capping efficiency of short RNA in in vitro transcription (co-transcriptional capping). The class given is biochemical. The note with it: short RNA (27 nt after trimming), Φ6.5 promoter, densitometry of PAGE; average of triplicates ± SD.

For another experiment, the system named is JAWS II cells. The note with it: JAWS II cell line, GLuc mRNA.
The subject of the next experiment is A549 cells. To be noted: A549 cell line, GLuc mRNA.
In experiment [2] the target is T3, T7 RNA polymerase. Also on record: method as in Sikorski et al. ([12]). To be noted: reference trinucleotides; ref Sikorski et al. ([12]); cited from earlier work.
In the next experiment the target is mouse Δ27NeIF4E. Also noted: method as in PMID 31984425. The note with it: previously determined, read-out: dissociation constant (KD); cited from earlier work.

Where two headings read alike, the source gives them in different places. Marks after values point to notes of the source that are not given here.

T2 sequence (P06730 whole entry): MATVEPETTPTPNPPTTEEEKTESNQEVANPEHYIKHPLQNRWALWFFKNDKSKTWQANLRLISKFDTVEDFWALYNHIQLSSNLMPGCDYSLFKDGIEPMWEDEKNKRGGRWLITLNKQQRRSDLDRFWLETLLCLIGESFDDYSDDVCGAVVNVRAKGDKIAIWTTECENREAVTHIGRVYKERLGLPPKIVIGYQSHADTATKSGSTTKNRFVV
T3 sequence (P00573 whole entry): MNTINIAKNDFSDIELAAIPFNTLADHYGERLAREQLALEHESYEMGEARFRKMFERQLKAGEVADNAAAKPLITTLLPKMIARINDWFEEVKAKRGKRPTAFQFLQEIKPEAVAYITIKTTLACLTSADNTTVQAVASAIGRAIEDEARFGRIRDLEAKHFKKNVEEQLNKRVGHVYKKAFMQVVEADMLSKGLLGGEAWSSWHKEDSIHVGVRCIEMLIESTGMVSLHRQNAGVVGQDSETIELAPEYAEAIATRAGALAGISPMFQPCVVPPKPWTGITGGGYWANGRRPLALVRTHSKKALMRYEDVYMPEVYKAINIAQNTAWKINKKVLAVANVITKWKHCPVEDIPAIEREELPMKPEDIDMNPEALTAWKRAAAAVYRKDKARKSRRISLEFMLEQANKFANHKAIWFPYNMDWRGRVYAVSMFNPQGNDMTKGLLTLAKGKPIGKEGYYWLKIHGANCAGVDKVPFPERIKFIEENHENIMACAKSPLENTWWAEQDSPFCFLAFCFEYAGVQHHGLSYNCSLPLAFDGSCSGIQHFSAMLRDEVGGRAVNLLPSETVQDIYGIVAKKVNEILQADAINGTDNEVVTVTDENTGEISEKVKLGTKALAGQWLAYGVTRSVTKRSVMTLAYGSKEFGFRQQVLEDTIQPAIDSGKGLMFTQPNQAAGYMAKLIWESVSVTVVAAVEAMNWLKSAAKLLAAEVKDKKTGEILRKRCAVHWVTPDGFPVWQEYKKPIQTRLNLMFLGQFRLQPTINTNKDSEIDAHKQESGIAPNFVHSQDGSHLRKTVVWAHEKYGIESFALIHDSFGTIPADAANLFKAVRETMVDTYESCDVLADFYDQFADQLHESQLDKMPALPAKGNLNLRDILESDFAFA

On to `CNc1ncnc2c1ncn2[C@@H]1O[C@H](COP(=O)(O)OP(=O)([O-])OP(=O)(O)OP(=O)(O)OC[C@H]2O[C@@H](n3c[n+](C)c4c(O)nc(N)nc43)[C@H](O)[C@@H]2O)[C@@H](OP(=O)(O)OC[C@H]2O[C@@H](n3cnc4c(=O)[nH]c(N)nc43)[C@H](O)[C@@H]2O)[C@H]1OC` [Compound 12, m^7Gpppp^m6AmpG], for which the “Susceptibility to hDcp2 (@30 min)” value on Human Dcp2 worked out at 0.40 ± 0.11. Also, the Kd on human eIF4E1a was 0.0073 ± 0.0003 µM. The same compound registered a Capping efficiency on T7 RNA polymerase [1] of 65 ± 15%.

Take `C[n+]1cn([C@@H]2O[C@H](COP(=O)(O)OP(=O)(O)C(Cl)(Cl)P(=O)([O-])OP(=O)(O)OC[C@H]3O[C@@H](n4cnc5c(N)ncnc54)[C@H](O)[C@@H]3OP(=O)(O)OC[C@H]3O[C@@H](n4cnc5c(=O)[nH]c(N)nc54)[C@H](O)[C@@H]3O)[C@@H](O)[C@H]2O)c2nc(N)nc(O)c21` [Compound 13, m^7GppCCl2ppApG]: the “Susceptibility to hDcp2 (@30 min)” value at Human Dcp2 is listed as 0.03 ± 0.02. Besides, the Kd on human eIF4E1a worked out at 0.0068 ± 0.0002 µM. On T7 RNA polymerase [1], the Capping efficiency is 89 ± 5%.

With `CO[C@@H]1[C@H](OP(=O)(O)OC[C@H]2O[C@@H](n3cnc4c(=O)[nH]c(N)nc43)[C@H](O)[C@@H]2O)[C@@H](COP(=O)(O)OP(=O)([O-])C(Cl)(Cl)P(=O)(O)OP(=O)(O)OC[C@H]2O[C@@H](n3c[n+](C)c4c(O)nc(N)nc43)[C@H](O)[C@@H]2O)O[C@H]1n1cnc2c(N)ncnc21` [Compound 14, m^7GppCCl2ppAmpG], the “Susceptibility to hDcp2 (@30 min)” value on Human Dcp2 stood at 0.01 ± 0.00. Further, the Kd on human eIF4E1a came out at 0.0091 ± 0.0005 µM. On T7 RNA polymerase [1], the Capping efficiency came out at 90 ± 4%.

On to `CNc1ncnc2c1ncn2[C@@H]1O[C@H](COP(=O)(O)OP(=O)([O-])C(Cl)(Cl)P(=O)(O)OP(=O)(O)OC[C@H]2O[C@@H](n3c[n+](C)c4c(O)nc(N)nc43)[C@H](O)[C@@H]2O)[C@@H](OP(=O)(O)OC[C@H]2O[C@@H](n3cnc4c(=O)[nH]c(N)nc43)[C@H](O)[C@@H]2O)[C@H]1OC` [Compound 15, m^7GppCCl2pp^m6AmpG], for which the “Susceptibility to hDcp2 (@30 min)” value on Human Dcp2 is on record as 0.03 ± 0.00. Besides, the Kd on human eIF4E1a is 0.0102 ± 0.0003 µM. This compound also yielded a Capping efficiency at T7 RNA polymerase [1] of 74 ± 14%.

With `CO[C@@H]1[C@H](OP(=O)(O)OC[C@H]2O[C@@H](n3cnc4c(=O)[nH]c(N)nc43)[C@H](O)[C@@H]2O)[C@@H](COP(=O)(O)OP(=O)([O-])OP(=O)(O)OC[C@H]2O[C@@H](n3c[n+](C)c4c(O)nc(N)nc43)[C@H](O)[C@@H]2O)O[C@H]1n1cnc2c(N)ncnc21` [m^7GpppAmpG, reference compound], the “fold more protein than ARCA-capped RNA” value in the experiment on JAWS II cells was “approximately 4 fold”; in the experiment with A549 cells, “approximately 2 fold”. Moreover, the results for the Kd on human eIF4E1a and at mouse Δ27NeIF4E were 0.042 µM and 0.046 µM, respectively. The Capping efficiency at T7 RNA polymerase [2] is listed as 90% ^c.

For m^7GpppApG [reference compound], the Kd at human eIF4E1a was found to be 0.0355 ± 0.0017 µM. Besides, the Capping efficiency at T7 RNA polymerase [2] is reported as 88% ^c.

As for m^7Gppp^m6AmpG [reference compound], on human eIF4E1a, the dissociation constant (Kd) was found to be 0.0464 ± 0.0006 µM. Also, the Capping efficiency on T7 RNA polymerase [2] is given as 75% ^c.
